Assay results: the RNAGym collection of RNA variant scans (doi:10.1093/nar/gkz1192)
The source gives no read counts; variants with many changes may rest on few reads.

B1: CPEB3 Ribozyme (parent)
chain: UAACAGGGGGCCACAGCAGAAGCGUUCACGUCGCAGCCCCUGUCAGAUUCUGGUGAAUCUGCGAAUUCUGCUGUAUAUCUC

Variants of: B1
Assay: self-cleavage, relative activity (ratio to wild type); higher = more cleavage; in vitro, sequencing
In short: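 For each CPEB3 ribozyme variant, relative activity is its cleaved/total read fraction divided by the unmutated ribozyme's. Barcoded error-prone PCR libraries were transcribed by T7 RNA polymerase (5 hours, 37°C) and held in DNase I for 15 min before an EDTA stop, with cleavage occurring throughout. Template-switching reverse transcription and Illumina sequencing were used to read the RNAs. A 5-read minimum applied, and results are the mean of three batches.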
UAGCAAGGGGCCACAGCAGAAGCGCUCACGUCGCAGCCCCUGUCAGAUUCUGGUGAGUCUGCGAAUUCUGCUGUAUAUCUC [A3G G6A U25C A57G] showed a self-cleavage of 0.44.
In the case of UAGCAGGAGGCCACAGCAGAAGCGUUCACGUCGUAGCCCCUGUCAGAUUCUGGUGAUUCUGCGAAUUCUGCUGAAUAUCUC [A3G G8A C34U A57U U74A], the self-cleavage is reported as 0.05.
Variant UAGCAAGGGGCCACAGCAGAAGCGUUCUCGUCGCAGUCCCUGUCAGAUUCUGGUGAAUCUGCGAACUCUGCUGUAUAUCUC [A3G G6A A28U C37U U66C] has a self-cleavage of 0.25.
UAGCAGGUGGCCUCAGCAGAAGCGUUCACGUCGCAGCCCCCGUCAGAUUCAGGUGAAUCUGCGAAUUCUGCUGUAUAUCUC [A3G G8U A13U U41C U51A] showed a self-cleavage of 0.09.
For UAGCAGGGUGCCACAGCAGAAGCGUGCACGUCGCAGCCCCUGUCAGAUUCUGGUGAAUCUGCGAAUCCUGCUGUAUAUCUC [A3G G9U U26G U67C], the self-cleavage was 0.27.
Variant UAGCAGGGGGCCACAGCAGAAGCGUUCACGUCGGCGCCCCUGUCAGAUUCUGGUGAAUCUGCGAAUUCUGCUGUAUAUCUC [A3G C34G A35C] has a self-cleavage of 0.16.
Work on UAGCAGGAGGCCACAGCAGAAGCGUUCUCGUCGCAGCCCCUGUCGGAUUCUGGUGAAUCUGCGAAUCCUGCUGUUUAUCUC [A3G G8A A28U A45G U67C A75U] yielded a self-cleavage of 0.18.
With UAGCAGAGGGCCACAGCAGAAGCGUUCACGUCGCGGCCCCUGUCAGAUUCUGGUGAAUCUGCGAAUUCUGCUGUAUAUCUC [A3G G7A A35G] the self-cleavage was 0.38.
Work on UAGCAAGGGGCCACAGCAAAAGCGUUCACGUCGCAGCCCCUGUCAGAUUCUGGUGAAUCUGCGAAUUCUGCUGUAUAUCUC [A3G G6A G19A] yielded a self-cleavage of 0.09.
UAGCAGGGAGCCACAGCAGAAGCGUUCACGUGGCAGCCCCUGUCAGAUUCUGGUGAAUCUGCGAAUCCUGCUGUAUACCGC [A3G G9A C32G U67C U78C U80G] showed a self-cleavage of 0.05.
UAGCAAGGGGCCACAGCAGAAGCGUUCGCGUCGCAGCCCCUGUCAGAUUCCGGUGAAUCUGCGAAUUCUGCUGUAUAACUC [A3G G6A A28G U51C U78A] gave a self-cleavage of 0.25.
In the case of UAGCAGGGAGCCACAGCAGAAGCAUUCACGUCUCAGCCCCUGUCAGAUUACGGUGAAUCUGCGAAUUCUGCUGUAUAUCUC [A3G G9A G24A G33U C50A U51C], the self-cleavage is reported as 0.
Variant UAGCAGGGGACCACAGCAGAAGCGUUCACGUGGCAGCCCCUGUCAGAUUCUGGUGAAUCUGCGAAUUCUGCUGUAUAUCUC [A3G G10A C32G] has a self-cleavage of 0.31.
For UAGCAGUGGGCCACAGCAGAAGCGUUCACGUCGCAGCCCCUGUCAGAUUCCGGUGAAUCUGCGAAUUCUGCUGUAUAUCUC [A3G G7U U51C], the self-cleavage was 0.57.
For UAGCAGGGGGCCACAGCAGAAGCGUUCACGUCGCAGCCCUUGUCAGAUUCUGGUGAAUCUGCGAAUUCAGCUGUAUAUCUC [A3G C40U U69A], the self-cleavage was 0.43.
With UAGCAGGGGGCCACAGCAGAAGCGUUCACGUCGUAGCCCCUGUCAGAUUCUGGUGAAUCUGCGAAAUCUGCUGAAUAUCUC [A3G C34U U66A U74A] the self-cleavage was 0.36.
With UAGCAAGGGGCCACAGCAGAAGCGUUCGCGUCGCAGCCCCAGUCAGAUUCUGGUGAAUCUGCGUAUUCUGCCGUAUAUCUC [A3G G6A A28G U41A A64U U72C] the self-cleavage was 0.05.
Work on UAGCAGGGGGCCACAGCAGAAGCGUUCACGUCGCAGCUCCUGUCAGAUUCUGGCGAAUCUGCGAAUUCUGCUGUGUAUCUC [A3G C38U U54C A75G] yielded a self-cleavage of 0.22.
Work on UAGCAGGGCGCCGCAGCAGAAGCGUUCACGUCGCAGCCCCUGUCAGAUUCUGGUGAAUCUGCGGAUUCUGCUGUAUAUCUC [A3G G9C A13G A64G] yielded a self-cleavage of 0.14.
Variant UAGCAGGGCGCCACAGCAGAGGCGUUCACGUCGCAGCCCCUGUCAGAUUCCGGUGAAUCUGCGAAUUCUGCUGUAUAUCUC [A3G G9C A21G U51C] has a self-cleavage of 0.03.
UAGCAGGGGACCACAGCAGAAGCGUUCACAUCGCAGCCCCUGUCAGAUUCUGGUGAAUCUGCGGAUUCUGCUGAAUAUCUC [A3G G10A G30A A64G U74A] gave a self-cleavage of 0.27.
For UAGCAGCGGGCCACAGCAGAAGCGUUCACGUCGCAGCCCCUGUCGGAUACUGGUGAAGCUGCGAAUUCUGCUGUAUACCUC [A3G G7C A45G U49A U58G U78C], the self-cleavage was 0.17.
With UAGCAGGAGGCCACAGCAGCAGCGUUCACGUCGCAGCCCCUGUCAGAUUCUGGUGUAUCUGCGAAUUCUGCUGUGUAUCUC [A3G G8A A20C A56U A75G] the self-cleavage was 0.2.
With UAGCAGGCGGCCACAGCAGAGGCGUUCACGUCGCAGCCCCUGACAGAUUCUGGUGAAUCUGCGAAUUCUACUGUAUAUCUC [A3G G8C A21G U43A G70A] the self-cleavage was 0.08.
In the case of UAGCAGGAGGCCACAGCUGAAGCGUUCACGUCGCAGCCCCUGUCAGAUUCUGGUGAAUCUGCAAACUCUGCUGCAUAUCUC [A3G G8A A18U G63A U66C U74C], the self-cleavage is reported as 0.25.
With UAGCAGGGAGCCACAGCAUAAGCGUUCACGUCGCAGCCCCUGUCAGAUUCUGGUGAAUCUGCGAAUUCUGCUGUAUAUCUC [A3G G9A G19U] the self-cleavage was 0.41.
With UAGCAAGGGGCCACAGCAGAAGCGUUCACGUCGCUGCCCCUGUCAGAUUCUGGUGAAUCCGUGAAUUCAGCCGUAUAUCUC [A3G G6A A35U U60C C62U U69A U72C] the self-cleavage was 0.13.
UAGCAGGGAGCCCCAGCAGAAGCCUUCACGACGCGGCCCCUGUCAGAUUCUGGUGAAUCUGCGAAUUCUGCUGUAUAUCUC [A3G G9A A13C G24C U31A A35G] showed a self-cleavage of 0.44.
UAGCAGGGGGCCACAGCAGAAGCGUUCACGUCGCAGCCCCUGUCAGAUUCUGGUGAAUCUGCGAAUUUUGCUGCAUAUCUC [A3G C68U U74C] showed a self-cleavage of 1.04.
Variant UAGCAGUGGGGCACAGCAGAAGCGCUCACGUCGCAGCCCCUGUCAGAUUCUGGUGAAUCUGCGAAUUCUGCUGUAUAUCUC [A3G G7U C11G U25C] has a self-cleavage of 0.25.
With UAGCAGGGGCCCACUGCAGAAGCGUACACGUCGCAGCUCCUGUCAGACUCUGGUGAAUCUGCGAGUUCUGCUGUAUAUCUC [A3G G10C A15U U26A C38U U48C A65G] the self-cleavage was 0.13.
For UAGCAGGGGGCCACAGCAGAAGCGUUCACGUCGCAGCACCUAUCGGGUUCUGGUGGAUCUGCGAAUUCUGCUGUAUAUAUC [A3G C38A G42A A45G A47G A56G C79A], the self-cleavage was 0.04.
UAGCAGGGGGCCACAGCAGAAGCGUUCAGGUCGCAGCCCCUGUCAGAUUCCGGUGAGUCUGCGAAUUCAGCUGUAUAUCUC [A3G C29G U51C A57G U69A] gave a self-cleavage of 0.36.
Work on UAGCAGGGGGCCACAGCAGAAGCGUUCAUGUCGCAGCCCCUGUCAGUUUCUGCUGAAUCUGCGGAUUCUGCUGUAAAUCUC [A3G C29U A47U G53C A64G U76A] yielded a self-cleavage of 0.07.
